Results: the supplement of paper PMC7125110
± gives the standard error. Variants at the background level are over-represented here.

B1: glmS ribozyme (parent)
chain: AUAAAAGCGCCAGAACUACAGAAAUGUAGUUGACGAGGAGGAGGUUUAUCGAAUUUUCGGCGGAUGCCUCCAAA

How the values were obtained:
Settings in all cases: with glucosamine-6-phosphate
glucosamine-6-phosphate [1] = variants of: B1; test: self-cleavage kobs at 40 uM GlcN6P; higher = faster cleavage; RNA array
Outline: (§1)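 Barcoded glmS ribozyme variants on sequenced MiSeq chips were transcribed in situ by E. coli RNA polymerase and tracked through a hybridised Cy3 probe at 37 °C. Glucosamine-6-phosphate (40 μM to 10 mM) in HEPES/KCl/Mg(OAc)2 buffer was flowed in, and tiles were imaged over ~14 h. Signals were normalised to baseline and to non-cleaving reference variants; per-tile medians were fit to one- or two-exponential decays to give kobs. kcat and KM came from weighted Michaelis–Menten fits across concentrations.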

glucosamine-6-phosphate [2] = variants of: B1; test: self-cleavage kobs at 640 uM GlcN6P; higher = faster cleavage; RNA array
Outline: as §1

glucosamine-6-phosphate [3] = variants of: B1; test: self-cleavage kobs at 10000 uM GlcN6P; higher = faster cleavage; RNA array
Outline: as §1

glucosamine-6-phosphate [4] = variants of: B1; test: self-cleavage kobs at 160 uM GlcN6P; higher = faster cleavage; RNA array
Outline: as §1

glucosamine-6-phosphate [5] = variants of: B1; test: self-cleavage kobs at 2500 uM GlcN6P; higher = faster cleavage; RNA array
Outline: as §1

Variant	self-cleavage kobs at 40 uM GlcN6P (glucosamine-6-phosphate [1])	self-cleavage kobs at 640 uM GlcN6P (glucosamine-6-phosphate [2])	self-cleavage kobs at 10000 uM GlcN6P (glucosamine-6-phosphate [3])	self-cleavage kobs at 160 uM GlcN6P (glucosamine-6-phosphate [4])	self-cleavage kobs at 2500 uM GlcN6P (glucosamine-6-phosphate [5])
AUAAAAGCGCCAGAACUACAGAAAUGUAGUAGACGAGGAGGAGGUUUUUCGAAUUUUCGGCGGAUGCCUCCAAA	< 1e-05 s⁻¹				
AUAAAAGCGCCAGAACUACAGAAAUGUAGUCGACGAGGAGGAGGUUUAUCGAAUUUUCUGCGGAUGCCUCCAAA	< 1e-05 s⁻¹	< 1e-05 s⁻¹			
AUAAAAGCGCCAGAACUACAGAAAUGUAGUCGACGAGCAGGAAGUUUAUCGAAUUUUCGGCGGAUGCCUCCAAA	< 1e-05 s⁻¹		< 1e-05 s⁻¹		
AUAAAAGCGCCAGAACUACAGAAAUGUAGUAGACAAGGAGGAGGUUUAUCGAAUUUUCGGCGGAUGCCUCCAAA	< 1e-05 s⁻¹	< 1e-05 s⁻¹	< 1e-05 s⁻¹	< 1e-05 s⁻¹	< 1e-05 s⁻¹
AUAAAAGCGCCAGAACUACAGAAAUGUAGUAGACGAGGAGGAGGUUUAUCGAAUUUUCGCCGGAUGCCUCCAAA	< 1e-05 s⁻¹	< 1e-05 s⁻¹			< 1e-05 s⁻¹
AUAAAAGCGCCAGAACUACAGAAAUGUAGUGGACGAGGAGGCGGUUUAUCGAAUUUUCGGCGGAUGCCUCAAAA	< 1e-05 s⁻¹	< 1e-05 s⁻¹			< 1e-05 s⁻¹
AUAAAAGCGCCAGAACUACAGAAAUGUAGUGGACGAGGAGGAGGUUUAUCGAAUUUGCGGCGGAUGCCUCCAAA	< 1e-05 s⁻¹				
AUAAAAGCGCCAGAACUACAGAAAUGUAGUCGACGAGGAGCAGGUUUAUCGAAUUUUAGGCGGAUGCCUACAAA	< 1e-05 s⁻¹		< 1e-05 s⁻¹		
AUAAAAGCGCCAGAACUACAGAAAUGUAGUGGACGAGGAGGAAGUUUAUCGAAUUUUCGGCGGAUGCCUCCAAA	< 1e-05 s⁻¹				
AUAAAAGCGCCAGAACUACAGAAAUGUAGUGGACGAGAAGGAGGUUUAUCGAAUUUUCGGCGGAUGCCUCCAAA	< 1e-05 s⁻¹		< 1e-05 s⁻¹		
AUAAAAGCGCCAGAACUACAGAAAUGUAGUGGACGAGGAGGAGGUUUAGCGAAUUUUCGGCGGAUGCCUCCAAA	< 1e-05 s⁻¹	4.38e-05 ± 1.9e-05 s⁻¹	0.000157 ± 1.4e-05 s⁻¹		0.000102 ± 1.4e-05 s⁻¹
AUAAAAGCGCCAGAACUACAGAAAUGUAGUGGACGAGGAGGAGGAUUAUCGAAUUUUCGGCGGAUGCCUCCAAA	0.000531 ± 0.00011 s⁻¹	0.00653 ± 0.0013 s⁻¹	0.0291 ± 0.0063 s⁻¹	0.00206 ± 0.0004 s⁻¹	0.0105 ± 0.0037 s⁻¹
AUAAAAGCGCCAGAACUACAGAAAUGUAGUGGACGAGGAGGAGGUUUAUCGAAUUUUCGACGGAUGCCUCCAAA	< 1e-05 s⁻¹				
AUAAAAGCGCCAGAACUACAGAAAUGUAGUGGACGAGGAGGAGGUUUAUCGAAUUUUCGGCUGAUGCCUCCAAA	< 1e-05 s⁻¹	< 1e-05 s⁻¹	< 1e-05 s⁻¹	< 1e-05 s⁻¹	< 1e-05 s⁻¹
